Experimental data from the supplement of paper PMC11417369.
± gives the standard deviation of the averaged measurements. The list shows a part of the results.

Each sequence was assayed on PfAP2-EXP AP2 domain (GST-tagged) (assay: gcPBM binding intensity (ln(normalized median fluorescence intensity)); higher = stronger DNA binding).
Procedure, shortened: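 The binding buffer was 1× PBS containing 1% milk, 0.2 mg/ml BSA, 0.5% salmon testes DNA and 0.03% Triton X-100. In it, GST-tagged P. falciparum DNA-binding domains expressed in E. coli were applied for 1 h to an Agilent 4 × 180k array of primer-extended double-stranded 36-bp intergenic genomic probes plus negative controls. Binding intensity, read with Alexa488 anti-GST antibody and a 488 nm scan, is the highest Masliner-normalised natural-log median intensity across replicate spots of either probe orientation.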

“AAAAAAAAAAAAAAAACACACATTTAATGAACTTAT [CACACA_site1276]” and “ATTATTTTTTTTCTTATACACACCATGCATCAAACT [CACACA_site2128]” are within error of each other in “gcPBM binding intensity (ln)” value: 8.56 ± 0.3 for the first, 8.96 ± 0.49 for the second.

“AAAAATAAGAAAAAGTGTACTTTATTATGTATATAT [XGTACX_site2305]” and “ACTTGTAAGAAACACACACACACACCGATATATATA [CACACA_site4594]” are within error of each other in “gcPBM binding intensity (ln)” value: 8.54 ± 0.26 for the first, 8.74 ± 0.52 for the second.

“AAAATTATATATTATAGTACATAAAATATTGATAAA [XGTACX_site8988]” and “AATAATGTATGAAATAAACACACAAGTAAGTACATA [CACACA_site8776]” are within error of each other in “gcPBM binding intensity (ln)” value: 8.32 ± 0.3 for the first, 8.85 ± 0.39 for the second.

“ATAATTTTAAATAAATGTACATATAGATGTGTGTAA [XGTACX_site3958]” and “AAATGTTATATATAATGTACTTGTAAGAACGTTCCT [XGTACX_site2840]” are within error of each other in “gcPBM binding intensity (ln)” value: 8.96 ± 0.26 for the first, 8.67 ± 0.45 for the second.

“ATGAGAAAATATATTATTTTATATGAACAAGTTTAT [XGTACX_negctrl_site372]” and “TATAACATTGTATGAATGCACTTTTATCTATTTTAA [GTGCAC_site9903]” are within error of each other in “gcPBM binding intensity (ln)” value: 8.21 ± 0.4 for the first, 8.36 ± 0.28 for the second.

“TTTTTTTTTTATGTTATTAAAAAAAAAAAAAATTAA [CACACA_negctrl_site222]” and “AAGATACACTTAATCGCACACGAAATTATATATTTA [CACACA_site3063]” are within error of each other in “gcPBM binding intensity (ln)” value: 7.96 ± 0.47 for the first, 8.28 ± 0.33 for the second.

“ATTAATTATAATGTATGTACATAACTTTTTTATATT [XGTACX_site5784]” and “TATTTACCCTCATGTTGTACTTTTCATTCATTTTAT [XGTACX_site7794]” are within error of each other in “gcPBM binding intensity (ln)” value: 8.67 ± 0.38 for the first, 9.21 ± 0.44 for the second.

“ACAAGTTTTTTTTTATCACACACAAAAAAAAAAATA [CACACA_site8377]” and “AACATACATAGACACACACACACACGCACACGCACA [CACACA_site6373]” are within error of each other in “gcPBM binding intensity (ln)” value: 8.26 ± 0.45 for the first, 8.61 ± 0.48 for the second.

“GAAAATACGTTTAATCGTACATATATATAATATATA [XGTACX_site4243]” and “TTTATTATTTTTAGGAGTACACAAAATAAAACAAAT [XGTACX_site8841]” are within error of each other in “gcPBM binding intensity (ln)” value: 8.45 ± 0.33 for the first, 8.84 ± 0.33 for the second.

“TTTTGTTATAAATAATGTACATATTTATTTAAAATT [XGTACX_site6610]” and “AAAAACAGAAATGTAACACACAAAAATTCTATTTAT [CACACA_site4026]” are within error of each other in “gcPBM binding intensity (ln)” value: 8.21 ± 0.37 for the first, 8.05 ± 0.27 for the second.

“TCTATAAAGGAATATACACACATATATAAATATGTA [CACACA_site6332]” and “AACCTTTATATGTAAAGTACAAAAAAGAGTAAAAAA [XGTACX_site5506]” are within error of each other in “gcPBM binding intensity (ln)” value: 8.19 ± 0.38 for the first, 8.57 ± 0.42 for the second.

“TATAAAAATGTGCACACACACACATATTTATATTTA [CACACA_site6826]” and “TATATTATATACCATTGTACATATAATATAGGTTCT [XGTACX_site7047]” are within error of each other in “gcPBM binding intensity (ln)” value: 8.63 ± 0.11 for the first, 8.38 ± 0.38 for the second.
